From PubChem BioAssay AID652104 (National Center for Advancing Translational Sciences (NCATS), 2013)
Screen size: about 410,000 compounds; about 7,200 (1.8%) were called active. The shares of active, inactive and inconclusive entries below differ from those in the screen. Calls come from the whole dose curve; as a rule, active = well fitted activation curve with a large enough effect; inconclusive = small, poorly fitted or top-dose-only effect, or another doubt; inactive = no such curve, though single readings can be large or run the other way. A potency beside an inconclusive call is a rough fit, not a confirmed value.

assay: qHTS of TDP-43 Inhibitors; details: TDP-43 expressing yeast growth rescue, BacTiter-Glo, 24 h; series mostly up to 46.1 µM; note: nearly all actives have a fitted effect of over 50% in size
Procedure, shortened: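 Luminescence from BacTiter-Glo reports growth of TDP-43-expressing yeast after 24 hr at 30 deg C with compound. Cells were raffinose-pregrown to mid-log, then seeded in galactose medium at OD600=0.02.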
Potency is the fitted concentration of half-maximal effect; tags give direction and shape of the fitted curve.

Potency, inconclusive:
O=c1c2ccccc2ncn1Cc1ccc(Cl)cc1 15.8 µM [activator, single point]
Clc1nc(Cl)c2ncn(-c3ccccc3)c2n1 35.5 µM [activator, single point]
CNc1ccc(Br)cc1C(O)c1ccccc1 (stereo unspecified) 12.6 µM [activator, single point]
CCOc1ccc(Nc2c(S(=O)(=O)c3ccc(C)cc3)cnc3ccc(OC)cc23)cc1 2.51 µM [activator, full curve]
O=C(Nc1cc(C(F)(F)F)ccc1N1CCOCC1)c1cncc(Br)c1 12.6 µM [activator, partial curve]
Cc1cc(C(=O)Nc2ccncc2)c(C)o1 3.16 µM [activator, single point]
S=C(Nc1ccc(Cl)cc1)N1CCCC1 11.2 µM [activator, partial curve]
S=c1[nH]nc(-c2cccs2)n1/N=C/c1cccs1 2.82 µM [activator, full curve, poor fit]
CC(C)N=C1CCCC1C(=S)SSC(=S)C1CCCC1=NC(C)C (stereo unspecified) 2.24 µM [activator, partial curve]
CSc1ccc(CCNC(=O)c2sc3ncccc3c2-n2cccc2)cc1 7.94 µM [activator, single point]
Cc1ccc(C2=CSC3=NNC4(CCCCC4)NN23)cc1 14.1 µM [activator, single point]
O=C(COC(=O)/C=C/c1cccc(F)c1)NC(=O)NC1CCCC1 35.5 µM [activator, single point]
COc1ccc(C(C)=O)cc1COC(=O)CCC(=O)c1cccs1 25.1 µM [activator, partial curve]
CCOc1cc(/C=N/NC(=O)CN2CCOCC2)ccc1OCc1ccc(Cl)cc1 5.62 µM [activator, full curve]
CC(=O)c1cccc(NC(=S)NC(=O)c2ccccc2C)c1 0.891 µM [activator, partial curve]
Cc1c2cnn(CC(=O)NCCc3ccccc3)c(=O)c2c(C)n1Cc1ccccc1Cl 7.94 µM [activator, full curve, poor fit]
Cc1sc2ncnc(SCC(=O)N3CCC(c4noc5ccc(F)cc45)CC3)c2c1C 25.1 µM [activator, partial curve, poor fit]
CS(=O)(=O)c1cccc(C(=O)OCCCC(=O)c2ccccc2)c1 17.8 µM [activator, partial curve]
Nc1nnc(SCC(=O)Nc2ccccc2)s1 10 µM [activator, partial curve, poor fit]
Cc1ccc(C(c2ccccc2)c2c(C)[nH]c3ccccc23)s1 (stereo unspecified) 12.6 µM [activator, single point]
O=C(O)c1ccc(C=NN=C2c3ccccc3-c3ccccc32)cc1 2.51 µM [activator, partial curve]
COc1ccc(C(C(=O)NC2CCCC2)n2c(Cc3cc(F)cc(F)c3)nc3ccccc32)cc1 (stereo unspecified) 12.6 µM [activator, partial curve, poor fit]
Cc1cc(Cl)ccc1OC(C)C(=O)NCCc1ccc2c(c1)OCCO2 (stereo unspecified) 31.6 µM [activator, partial curve]
Cc1cc(C)c2nc(N3CCN(C(=O)c4ccco4)CC3)sc2c1 10 µM [activator, partial curve]
CC(C)c1cnc2c(c1SCc1cccc(F)c1)c(=O)n(C)c(=O)n2C 5.01 µM [activator, full curve]
O=C(Nc1ccc2c(c1)OCO2)C1CCCCN1S(=O)(=O)c1ccc(F)cc1 (stereo unspecified) 35.5 µM [activator, single point]
CC(C)CN(CC(C)C)c1nnc(NC(=O)Cn2c(=O)oc3ccccc32)s1 1 µM [activator, full curve]
Cc1nnsc1C(=O)NNc1ccc(Cl)cc1 14.1 µM [activator, partial curve]
Cc1ccc(C(=O)c2cc3c(cc2N)OCCO3)cc1 14.1 µM [activator, partial curve]
Cc1ccc(S(=O)(=O)N2C[C@H]3[C@H]4C(=O)N(c5ccccc5)C(=O)[C@H]4CC(=O)[C@H]3[C@@H]2c2cccc3ccccc23)cc1 10 µM [activator, partial curve, poor fit]
O=C1N(Cc2cccc(C(F)(F)F)c2)c2ccccc2S(=O)(=O)N1c1cccc(Cl)c1 6.31 µM [activator, partial curve]
Cc1nc2oc3c(NCc4ccccc4)ncnc3c2c2c1COC(C)(C)C2 11.2 µM [activator, partial curve]
COc1ccc(OCC(=O)Nc2ccc(C)cc2)cc1 10 µM [activator, partial curve]
CCN(CC)C(=O)[C@H]1C[C@H](CC(=O)NCc2cccc(C(F)(F)F)c2)C(=O)N2CCc3c([nH]c4ccc(Cl)cc34)[C@]12C 25.1 µM [activator, single point]
CCOc1ccc(C(=O)OCC(=O)NCCCc2ccccc2)cc1 25.1 µM [activator, single point]
CN(CC(=O)O)S(=O)(=O)c1ccc2c(c1)NC(=O)CC(=O)N2 35.5 µM [activator, partial curve]
CCCOc1ccc(C(=O)N2CCN(c3ccc(NC(=O)CC)cc3Cl)CC2)cc1 17.8 µM [activator, single point]
O=C(COc1ccc([N+](=O)[O-])cc1)Nc1cccc2cccnc12 0.794 µM [activator, full curve, poor fit]
O=C(Nc1cccc(Cl)c1N1CCOCC1)c1ccc2c(c1)OCCO2 28.2 µM [activator, single point]
COc1cccc(C(C)(O)c2nc(-c3ccc(OC)c(OC)c3)cs2)c1 (stereo unspecified) 35.5 µM [activator, single point]
C=C(C)CNC(=S)/N=c1\scc(C)n1CC 17.8 µM [activator, single point]

Potency, inactive:
CC(C)(C)OC(=O)C[C@H]1C/C=C\C[C@@H](CC(=O)N(CCO)Cc2ccccc2)C(=O)N[C@H](Cc2c[nH]c3ccccc23)COC1=O
Cc1cc(C)nc(Nc2nc3ccccc3s2)n1
Cc1ccc(-c2nnn(CC(=O)N(CC3CCCO3)C(C(=O)NC3CCCC3)c3ccc(O)cc3)n2)o1 (stereo unspecified)
O=[N+]([O-])c1cccc(C(=Nc2ccccc2)NO)c1
CCOC(=O)c1cccc(NC(=O)c2cn(-c3cccc(OC)c3)c(=O)c3ccccc23)c1
COC(=O)c1ccc(=O)c2nc3/c(=C/O)c(O)cc(=O)c3[nH]c12
CCCCCC(=O)NC(=S)Nc1ccc(Br)cc1C
Cc1cc(C)c(NC(=O)CN2C(=O)c3cccnc3Oc3ccc(C)cc32)c(C)c1
Cc1ccc(-c2cc(NC(=O)COc3ccc(Cl)c(C)c3)on2)cc1
CCN(CC)C(=O)Oc1ccc(Br)cc1C(=O)Nc1ccc(F)c(Cl)c1
CC1CCN(c2oc(-c3ccc(COc4ccccc4)o3)nc2C#N)CC1
Cc1cccc(-n2c(=O)[nH]c3c(C(N)=O)nc(CC(C)C)nc32)c1
COC(=O)c1ccc2c(c1)N(CC(=O)Nc1cccc(Cl)c1C)C(=O)c1ccccc1S2
O=C(Nc1cccc2c1CCCC2)c1ccccc1Cl
COc1ccc(CNC(=O)c2cc3cc(S(=O)(=O)N4CCCCC4)ccc3n2C)c(OC)c1
Cc1nn(Cc2c(Cl)cccc2Cl)c(C)c1NC(=O)c1cc(C(C)C)on1
CCOc1cc(CNC(=O)c2ccc3c(c2)N(C)C(=O)C2CCCCN32)cc(OCC)c1OCC (stereo unspecified)
COc1cc(CNCCSc2nnnn2C)cc(OC)c1OC
CCc1ccccc1NC(=O)CSC1=Nc2ccccc2C2=NC(Cc3ccccc3)C(=O)N12 (stereo unspecified)
CCN(CC)S(=O)(=O)c1cc(NC(=O)CNc2cccc(S(=O)(=O)N3CCOCC3)c2)ccc1C
COc1cccc(-c2cc(C(=O)Nc3ccncc3)c3ccccc3n2)c1

Potency, active:
COc1ccc(NC(=O)C2Cc3c(-c4cccc(F)c4)ccnc3O2)cc1 (stereo unspecified) 22.4 µM
CCOc1nc(NC2CCCC2)nc(N2CCC(C)CC2)n1 17.8 µM
CCSc1ccc([C@@H]2[C@@H]3C(=O)N(CC)C(=O)[C@@H]3[C@]3(C(=O)OC)CCCCN23)cc1 25.1 µM
c1csc(Cn2c(-c3cccs3)nc3ccccc32)c1 12.6 µM
O=C(CSc1ccc2c(c1)OCCO2)NCCc1ccc(Cl)cc1Cl 11.2 µM
CCn1c(COc2ccc(C)cc2)nc2ccccc21 11.2 µM
CC(=O)c1ccc(NC(=O)c2nc(-c3ccccc3)n(-c3ccc(Cl)cc3)n2)cc1 7.94 µM
Cc1cc(C(=O)CCl)c(C)n1CC1COc2ccccc2O1 (stereo unspecified) 20 µM
COc1ccc(C(O)c2nc(-c3ccc4c(c3)OCO4)cs2)cc1 (stereo unspecified) 14.1 µM
